# Measured values reported in PubChem BioAssay AID588855 (National Center for Advancing Translational Sciences (NCATS), 2011).
# In all, about 410,000 compounds went through this assay and about 5,000 (1.2%) were called active. Inconclusive results, whose numbers are uncertain, are shown with a selection of clear calls. Calls follow the shape of the dose curve; as a rule, active = well fitted inhibition curve with a large enough effect; inconclusive = small, poorly fitted or top-dose-only effect; inactive = no such curve, though single readings can be large or run the other way. A potency beside an inconclusive call is a rough fit, not a confirmed value.
# Test: qHTS for Inhibitors of TGF-b; also: nearly all actives have a fitted effect of over 65% in size
# Conditions: HepG2 CAGA-GFP TGF-b/SMAD3 reporter, GFP fluorescence, 18 h, TGF-beta stimulated, 500 pg/mL final; series mostly up to 46.1 µM
# Method in brief: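 HEPG2 CAGA-GFP reporter cells (1000/well, DMEM with 1% FBS) received compounds, then recombinant TGF-beta at 500 pg/mL final for 18 hours at 37 degrees C. Per-cell GFP summed per well was normalised to unstimulated and stimulated DMSO controls before curve fitting.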
# Potency is read from the fitted curve at half-maximal effect; tags tell the direction and shape of the fitted curve.
row,Compound,Potency
1,O=C1CCN(Cc2ccccc2)CCN1[C@H](COc1ccccc1)c1ccccc1,"inconclusive: 10 µM [inhibitor, partial curve, poor fit]"
2,Cc1ccc(C(=O)COC(=O)C2C3C=CC(C3)C2C(=O)OCC(=O)c2ccc(C)c(C)c2)cc1C (stereo not given),"inconclusive: 1.41 µM [inhibitor, partial curve]"
3,CCS(=O)(=O)N1CCN=C1SC(C)c1ccccc1 (stereo not given),inactive
4,CCC(=O)N1CCN(c2ccc(Cl)cc2NC(=S)NC(=O)c2ccco2)CC1,inactive
5,CC(=O)Nc1cc(-c2ccc(N3CCN(C)CC3)cc2)cn2c(-c3ccc(F)c(Cl)c3)cnc12,"inconclusive: 31.6 µM [inhibitor, single point]"
6,COc1ccccc1-c1nnc(SC(C(=O)c2c[nH]c3ccccc23)c2ccccc2)n1C (stereo not given),"inconclusive: 22.4 µM [inhibitor, single point]"
7,O=C(CSc1nnnn1-c1ccccc1)c1ccc(O)cc1O,"inconclusive: 35.5 µM [inhibitor, single point]"
8,Cc1ccc(Nc2nc(N)c3ccccc3n2)cc1C,"inconclusive: 20 µM [inhibitor, single point]"
9,O=S(=O)(Nc1ccc(C(O)(C(F)(F)F)C(F)(F)F)cc1)c1ccc(Cl)c2nonc12,"inconclusive: 10 µM [inhibitor, partial curve, poor fit]"
10,COc1ccc(CNC(=O)C2CCN(C(=O)N3CCOc4ccc(Cl)cc43)CC2)cc1,"inconclusive: 7.08 µM [inhibitor, partial curve]"
11,Cc1ccccc1NC(=O)c1ccccc1OCC(=O)Nc1ccc(Br)cc1,"inconclusive: 7.94 µM [inhibitor, partial curve]"
12,CC(=O)N(C1=C(N)C(=O)c2ccccc2C1=O)c1ccccc1,"inconclusive: 28.2 µM [inhibitor, single point]"
13,Cc1ccc(NC(=O)CC(=O)c2ccccc2)cc1C,"inconclusive: 2.82 µM [inhibitor, partial curve, poor fit]"
14,Clc1nc(-c2ccccc2)ncc1Oc1ccccc1,"inconclusive: 7.08 µM [inhibitor, partial curve, poor fit]"
15,O=S(=O)(c1ccc(Cl)cc1)N1CCN=C1SCc1ccc(Cl)c(Cl)c1,"inconclusive: 22.4 µM [inhibitor, single point]"
16,CN(C)CCN(C(=O)c1ccc2ccccc2c1)c1nc2c(F)cccc2s1,inactive
17,Cc1ccc(S(=O)(=O)C2CS(=O)(=O)CC2O)cc1 (stereo not given),"inconclusive: 35.5 µM [inhibitor, single point]"
18,Cc1ccc(S(=O)(=O)N2CCCC2CNC(=O)C(=O)NCc2ccc3c(c2)OCO3)cc1 (stereo not given),inactive
19,O=C(CN1C(=O)C2(SCC(=O)N2c2ccc(F)c(F)c2)c2ccccc21)Nc1cccc(Cl)c1 (stereo not given),"inconclusive: 14.1 µM [inhibitor, single point]"
20,CCOC(=O)CC(=O)COc1nc2cc3c(nc2o1)CCCC3,inactive
21,O=C(Nc1ccc(Cl)cc1)C1=Cc2cc(Cl)ccc2OC1,"inconclusive: 35.5 µM [inhibitor, single point]"
22,COc1ccc(-c2cnc3c(NC(C)=O)cc(-c4ccc(C(=O)N5CCOCC5)cc4)cn23)cc1OC,inactive
23,CCCC(c1nnnn1C1CCCC1)N1CCN(c2ccccc2F)CC1 (stereo not given),"inconclusive: 6.31 µM [inhibitor, single point]"
24,Cc1ccc(S(=O)(=O)N(CC(O)Cn2c3ccccc3c3ccccc32)c2cccc(C(=O)NCCO)c2)cc1 (stereo not given),active: 12.6 µM

row,Compound,Potency
1,O=C(NCCC1=CCCCC1)c1cc(COc2ccc(F)cc2Cl)on1,"inconclusive: 35.5 µM [inhibitor, single point]"
2,COc1cc(NCCCCCCN)c2ncccc2c1OC,inactive
3,COc1ccc(-n2c(=O)/c(=C\c3cccs3)s/c2=C(/C#N)C(=O)NCCN2CCOCC2)cc1,inactive
4,O=C(CSc1nc2c([nH]c3ccccc32)c(=O)n1-c1ccc(F)cc1)Nc1ccc2c(c1)OCCO2,inactive
5,Cc1[nH]ncc1Nc1ccccc1C(C)C,"inconclusive: 7.94 µM [inhibitor, partial curve, poor fit]"
6,Cn1nc(-c2ccccc2F)c2cc(C(=O)N3CCN(c4ccccc4F)CC3)sc21,"inconclusive: 12.6 µM [inhibitor, partial curve]"
7,COC(=O)c1ccc2c(=O)n(CCCCCC(=O)N3CCN(c4cccc(C)c4C)CC3)c(=O)[nH]c2c1,active: 2.82 µM
8,Cc1ccc(NC(=O)C(C)Sc2n[nH]c(CNc3ccccc3)n2)cc1 (stereo not given),inactive
9,O=C1COc2ccc(S(=O)(=O)Nc3ccc(OC(F)(F)F)cc3)cc2N1,"inconclusive: 17.8 µM [inhibitor, single point]"
10,NC(=O)c1ccsc1NC(=O)c1ccc(S(=O)(=O)N2CCCCC2)cc1,"inconclusive: 35.5 µM [inhibitor, single point]"
11,Cc1cc(C)nc(NC(=O)c2c(-c3ccccc3Cl)noc2C)c1,"inconclusive: 14.1 µM [inhibitor, partial curve, poor fit]"
12,COc1ccccc1CC(=O)Nc1cc2oc3ccccc3c2cc1OC,inactive
13,CCOc1cc(CNc2ccc(O)cc2)cc(Cl)c1OCc1ccccc1,"inconclusive: 17.8 µM [inhibitor, partial curve, poor fit]"
14,CC(=O)c1coc2ccc(OCCN3CCCCC3)cc12,"inconclusive: 3.55 µM [inhibitor, single point]"
15,Cc1c(C(=O)OCC(=O)N(C)Cc2ccc(Cl)cc2)oc2ccccc12,inactive
16,CCOC(=O)/C(=C/c1c(C)n(C)c2ccc([N+](=O)[O-])cc12)C(C)=O,active: 15.8 µM
17,CCC(=O)NCc1nc2ccccc2n1Cc1ccccc1,inactive
18,C=CCOc1c(Cl)cc(CNc2ccc3[nH]c(=O)[nH]c3c2)cc1OC,inactive
19,O=C(CSc1ccc2c(c1)OCCO2)Nc1ccc(Br)cn1,"inconclusive: 25.1 µM [inhibitor, single point]"
20,Cc1ccc(S(=O)(=O)N/N=C/c2c[nH]c3ccccc23)cc1,"inconclusive: 35.5 µM [inhibitor, single point]"
21,CC(C)c1ccc(NC(=O)C2Cc3c(-c4ccc5c(c4)OCO5)ccnc3O2)cc1 (stereo not given),inactive
22,O=C(OCC1CCCO1)c1ccc2c(c1)N(Cc1ccc(F)cc1)C(=O)c1ccccc1S2(=O)=O (stereo not given),inactive
23,COc1cc(OC)c(N(C)C(=O)c2cc3c(s2)-c2ccccc2OC3)cc1Cl,"inconclusive: 2.51 µM [inhibitor, full curve, poor fit]"
24,COc1ccc(CCNc2nc(-c3ccc(NC(C)=O)cc3)cs2)cc1OC,"inconclusive: 35.5 µM [inhibitor, single point]"

row,Compound,Potency
1,Cc1ccc(NC(=O)Cc2n[nH]c(=O)c3ccccc23)cc1S(=O)(=O)N1CCCCCC1,"inconclusive: 11.2 µM [inhibitor, single point]"
2,CCC(Sc1nc2ncccc2[nH]1)C(=O)Nc1ccccc1F (stereo not given),inactive
3,CCOC(=O)C1C2C=CC3(CN(Cc4ccccc4)C(=O)C13)O2 (stereo not given),"inconclusive: 5.62 µM [inhibitor, single point]"
4,Cc1ccc2nc(SCC(=O)c3ccc4c(c3)OCO4)[nH]c2c1,inactive
5,CCCCc1ccc(NC(=O)C2CCCO2)cc1 (stereo not given),inactive
6,CC(=O)OCC(=O)Nc1ccc(Br)c(C)c1,active: 15.8 µM
7,CCc1ccc(-c2nc(CN3CCC(C(=O)NCc4ccco4)CC3)c(C)o2)cc1,"inconclusive: 20 µM [inhibitor, single point]"
8,COc1ccc(CCNC(=O)COC(=O)Cc2ccc(OC)cc2)cc1,"inconclusive: 0.708 µM [inhibitor, partial curve, poor fit]"
9,Cc1cccc(C)c1NC(=O)C[N+](C)(C)CC(O)COc1cccc2ccccc12 (stereo not given),inactive
10,CCN(CC)c1ccc(/C=N/NS(=O)(=O)c2ccc(C)c([N+](=O)[O-])c2)cc1,inactive
11,OCCN(CCCn1c(C(F)(F)F)nc2ccccc21)c1nc(CN2CCCCC2)cs1,inactive
12,N#Cc1ccc(CN2CCN(C(=O)c3cc(C4CC4)nn3-c3ccccc3)CC2)cc1,"inconclusive: 14.1 µM [inhibitor, partial curve, poor fit]"
13,COc1cc(COCC(O)CN2CCN(CCN3C(=O)c4cccc5cccc(c45)C3=O)CC2)cc(OC)c1OC (stereo not given),"inconclusive: 35.5 µM [inhibitor, single point]"
14,CCOc1ccc(CN(C)C(=O)c2ccc(S(=O)(=O)N(C)c3ccccc3OC)cc2)cc1,"inconclusive: 15.8 µM [inhibitor, partial curve, poor fit]"
15,O=C(N/N=C/c1ccc(-c2cccc(C(F)(F)F)c2)o1)c1cccc(F)c1,"inconclusive: 35.5 µM [inhibitor, single point]"
16,COc1cc(CN2CCC(Cc3ccccc3)CC2)c([N+](=O)[O-])cc1OC,inactive
17,Cc1ccc(CNC(=O)Cn2c(-c3cccs3)cc3cc(Cl)ccc32)cc1,"inconclusive: 17.8 µM [inhibitor, single point]"
18,Cc1ccc(N2C(=O)C(CC(=O)Nc3ccc(F)cc3)N(Cc3ccc4c(c3)OCO4)C2=O)cc1 (stereo not given),inactive
19,CC(C)c1ccc(NC(=S)NN2C(C)CCCC2C)cc1 (stereo not given),"inconclusive: 7.94 µM [inhibitor, partial curve]"
20,CCN1CCN(c2nc(-c3cccnc3)nc3ccccc23)CC1,inactive
21,N/C(=N/OC(=O)c1ccc(Cl)cc1)c1ncc([N+](=O)[O-])s1,"inconclusive: 6.31 µM [inhibitor, single point]"
22,O=C1CCC/C=C\C[C@@H](CC(=O)N(CCO)Cc2ccccc2)C(=O)N2CCC[C@H]2CO1,"inconclusive: 6.31 µM [inhibitor, single point]"
